The labels stand for the following.
T1: UNK ZnF1-6 (called full-length) (human, UniProt Q9C0B0 30-357)
T1 sequence: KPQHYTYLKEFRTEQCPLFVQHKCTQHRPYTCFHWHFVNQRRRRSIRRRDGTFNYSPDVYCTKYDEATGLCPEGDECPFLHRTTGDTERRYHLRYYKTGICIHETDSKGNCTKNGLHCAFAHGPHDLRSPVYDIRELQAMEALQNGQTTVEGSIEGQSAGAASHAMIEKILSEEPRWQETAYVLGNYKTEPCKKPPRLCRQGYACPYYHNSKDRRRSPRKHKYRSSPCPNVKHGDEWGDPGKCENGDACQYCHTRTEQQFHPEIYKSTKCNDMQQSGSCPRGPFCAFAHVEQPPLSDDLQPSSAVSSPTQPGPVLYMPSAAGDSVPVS

B1: ENSG00000198589:be:win_4601|CDS|ENSG00000198589|bound_else_gene|NA|bound_elsewhere_windowed (ssRNA)
RNA: GGGAGUUCUACAGUCCGACGAUCUGGCAGUAGUAUACUUUAUCUCUGUUCUUAUGGUCUCCAAGUACAGAGACAUUUUGGAACCCCAAAAUGAAAGGCAUAGCCAGUCAUGUACAGAAACUGGCAGUGAAAAUGAGAAUGUAUCAACAGAGGAUUGAGCAUCA
B2: chr15:64682558:64682659:+|3pUTR|ENSG00000180357|unk|FALSE|bound_elsewhere (ssRNA)
RNA: GGGAGUUCUACAGUCCGACGAUCCACACUGGUCUUGCCUCUUCUUUUCCACUGCUUGGCUCUUAAGCCUCAGGCAGAUAAACUAGUAUUCCCCCCAGCUUGGGGAACCUUGGAGUCUGCCAGGUCACCUUAGGGCAAGGCCCACAACAGAGGAUUGAGCAUCA
B3: chr19:13098382:13098626:+|3pUTR|ENSG00000008441|msi1|total|mutant (ssRNA)
RNA: GGGAGUUCUACAGUCCGACGAUCACGCAGUAUAUACGAGUAUCUCUAUAUACCGUACUAAUGGAUUUGGUGUGCUUCCCCCUCCGCGUCCCCCUCCCUCUGCUCCUCCUCCUUCAGCCUGGUCUCCCCCUCUUCUCUGCCCUCCAACAGAGGAUUGAGCAUCA
B4: chr9:122916526:122916627:-|3pUTR|ENSG00000171448|unk|total|mutant (ssRNA)
RNA: GGGAGUUCUACAGUCCGACGAUCAUGCUUCCCCGCAUUGUGAUUUUUACAUGAUCCAGCCAAAGAGUACCAAUUCUAUGCAACCGUGAGACUCUACCCUGUCAACCAAACAGCAUUUUUUGGUAUUUUCUGUCAACAUCAUUUCAACAGAGGAUUGAGCAUCA
B5: chr1:202147012:202148699:-|three_prime_utr|ENSG00000143851|control|control|control (ssRNA)
RNA: GGGAGUUCUACAGUCCGACGAUCAAGUGGGCCGAGUGAUCUGGGGGUACCCCUUGGGUUGGUGUGGGGAAGGAGUGCCUCCUUAGUGGUGCUUGCAGUCACAGGAAGCAGCAGCAGUAAGGACAAGGGGCCGGAUUCCAGGUCCAACAGAGGAUUGAGCAUCA
B6: ENSG00000198589:be:win_3051|CDS|ENSG00000198589|bound_else_gene|NA|bound_elsewhere_windowed (ssRNA)
RNA: GGGAGUUCUACAGUCCGACGAUCAGAAAUGAAAGCUGAGCAAGAAAAUCAGGAGUUACCAGAUGAAGGCACUUUGGAAGAAACACUGACAAAUGAGACAAGGAAUGCAGAUGAUUUAGAAGUAUCUUCUGACAUAAUAGAAGCCAACAGAGGAUUGAGCAUCA
B7: chr2:210024032:210024201:-|CDS|ENSG00000144445|control|control|control (ssRNA)
RNA: GGGAGUUCUACAGUCCGACGAUCUACAGUAAAAAUGUUGAAGGACAGGACUUGCUUUUGAAAGAAUACCCUAAUAACUUCAGUAGCAGUCAGCAAUGUGCUGCUGCAAGUCCUCCUGGGCUUCCUUCAGAGAACCAGGAUCUGCAACAGAGGAUUGAGCAUCA
B8: chr7:135927258:135927359:-|3pUTR|ENSG00000105887|msi1_unk|total|mutant (ssRNA)
RNA: GGGAGUUCUACAGUCCGACGAUCCAGCUUCAGACUGUUAUCUACCGGCUUAUCGUUCAAAUACAGCACUUGAAUAUCCCAAGCCGUUCUUCUACGCACCGCUCACCUUUCUAAACCCAGUUAAGCAUGGAAGAGAGGCCGCCGCAACAGAGGAUUGAGCAUCA
B9: ENSG00000136451:be:win_551|CDS|ENSG00000136451|bound_else_gene|NA|bound_elsewhere_windowed (ssRNA)
RNA: GGGAGUUCUACAGUCCGACGAUCGAGAUGUGUACCAUCUCAAUCGACACAAGCUCUCCCAUUCAGAUGAGAAACCCUUUGAGUGUCCUAUUUGUAAUCAGCGCUUCAAGAGGAAGGACCGGAUGACUUACCAUGUGAGGUCUCCAACAGAGGAUUGAGCAUCA
B10: chr1:32680599:32680700:+|3pUTR|ENSG00000162521|msi1|FALSE|unique (ssRNA)
RNA: GGGAGUUCUACAGUCCGACGAUCAAGUGCUUAAAAUGGAAUAAAUUGCUUUUCUACAUAACCCCAUGCUGAUGGGUUUUAUUUAGUAUAAAACAUCCAUCAAACACCAGUCUCUGGCUUCUAGAAGAGUCCUUCAGAUGACAGCAACAGAGGAUUGAGCAUCA
B11: chr9:95099063:95099164:-|3pUTR|ENSG00000158169|unk|total|mutant (ssRNA)
RNA: GGGAGUUCUACAGUCCGACGAUCGAGCGCCCCUCCAACCAGGCUGUUAUUCCCCUGGACUCCGUGACAUCUGUGGAAUUUUUCCGCUCUUUAAAAUCUGUAAUUUGUUGUCUAUUUUUUCAUUCUAAAUAAAACUUCAGUUUGCAACAGAGGAUUGAGCAUCA
B12: ENSG00000146842:stop:overlap|stop_codon|ENSG00000146842|stop_codon|NA|stop_codon (ssRNA)
RNA: GGGAGUUCUACAGUCCGACGAUCUGCUUGGGAGAGUUAAUCUUGGUCUAUCUGGUGUGAAUAUAUUGUGGAUCUUUGGCGAGUAGCAAGUCAUAUAUUUAAUUCUGACAUUUAGACUAUUUCACUGAACCAGAAGUCGAAACUCAACAGAGGAUUGAGCAUCA
B13: chr1:37590682:37590793:-|CDS|ENSG00000134697|unk|FALSE|unique (ssRNA)
RNA: GGGAGUUCUACAGUCCGACGAUCAAGCAAAGCAAGUUACCAAUGUCUCUUCUCCAUGAUCGAAUCCGGCCUCAUGUAAGAUGUAGGAUAUCCCUGGUGAUGGAAUUUCCUGGGCAAACUCCAUGCAGAUCCCUCUCUAACAUACAACAGAGGAUUGAGCAUCA
B14: chr1:117869688:117869789:-|3pUTR|ENSG00000196505|msi1|total|mutant (ssRNA)
RNA: GGGAGUUCUACAGUCCGACGAUCACUCCAGCAGUGAGCAUUCCGAGAGUGUGUUGUCUUCCAGAGUCAUGAAUGAUUUUGUUCCGCUAUCAGGUCUACUACCUCUAAGGACAUUUCACCGCAGCAUCUCUUGAGUUGCCUGCACAACAGAGGAUUGAGCAUCA
B15: chr1:43623430:43623515:+|3pUTR|ENSG00000142949|msi1_unk|FALSE|overlapping (ssRNA)
RNA: GGGAGUUCUACAGUCCGACGAUCGGCGGGGAAGGGUGCAUAGCUGUUUUAGCUGAGGGACGUGGUGCCGACGUCCCCAAACCUAGCUAGGCUAAGUCAAGAUCAACAUUCCAGGGUUGGUAAUGUUGGAUGAUGAAACAUUCACAACAGAGGAUUGAGCAUCA
B16: chr13:20822168:20822271:-|CDS|ENSG00000132953|unk|FALSE|unique (ssRNA)
RNA: GGGAGUUCUACAGUCCGACGAUCUCGAAAAAUCAGAGAAGAUUCAGAUAUGGCACAAGAUUCUCUGCAGUGCCUUGCCCAGUUAGCUUCUCUUCAUGGACCCAUCUUCCCAGAUGAAGGAUCACAAGUUGAUUAUCUAGCACACAACAGAGGAUUGAGCAUCA
B17: chr11:46542767:46542868:-|CDS|ENSG00000110497|msi1|total|mutant (ssRNA)
RNA: GGGAGUUCUACAGUCCGACGAUCAACACGCUCCGCAACCUCAGUCUGGGUCCUACCCGCCGCUCUUUGGGAGGGCCUCUGUCCCGCCACCCUUCCCGGUAUCACCGAGAAACCGCUCCUGGGUUGACAGGAUCUGAGUGGACCCAACAGAGGAUUGAGCAUCA
B18: ENSG00000070961:be:win_5951|3pUTR|ENSG00000070961|bound_else_gene|NA|bound_elsewhere_windowed (ssRNA)
RNA: GGGAGUUCUACAGUCCGACGAUCACACCAACUCUAAUCCAUAAACGGGUCUUAUGACAUCUAUGAAGUAGUAGCAAGACAUGCUUAGUGUGUAUUUCUCUCUUUGAGACACUGUAAUUUCUACCAGAAAUUUCCAGAGCAUUACAACAGAGGAUUGAGCAUCA
B19: chr4:55904547:55904648:+|3pUTR|ENSG00000090989|msi1|FALSE|bound_elsewhere (ssRNA)
RNA: GGGAGUUCUACAGUCCGACGAUCAAAAUACCAAGCAACUGUUUUGAGAACCCAGACUUAAAAUUUUAUGUAUUAUUAAAUGUUAGAUAAAUGGGUAGUACCAUACUACAAAUAUUUAAAUGCAAAAUUACCAACCUAUAUAGCCAACAGAGGAUUGAGCAUCA
B20: chr18:46811193:46811294:-|3pUTR|ENSG00000078043|unk|FALSE|unique (ssRNA)
RNA: GGGAGUUCUACAGUCCGACGAUCUUUUUUUUCAUUUUUUUAAAAUGAUAUCUUACCUGAAACUACAAACGACAAAAGAGAAUUAGAAAUGUUUGAAUUAAAGUGAAGAAGGGUUGGGGGAGAUGGGCCUGAACCCACUUCCUGCAACAGAGGAUUGAGCAUCA
B21: chr16:67098774:67098826:+|CDS_3pUTR|ENSG00000067955|msi1_unk|total|mutant (ssRNA)
RNA: GGGAGUUCUACAGUCCGACGAUCAGACCCCCGUCCUGGUUCCAAUUCCGGUGGUGGUGAUGACCUCAAACUUCGUUAAUUAACCGCACAGCAGAUGUGUGCUGCCCAUCUUUACAUACACAUUGCUUCCCGUUGGCAGAAAUACAACAGAGGAUUGAGCAUCA
B22: chr15:64675409:64675510:+|CDS|ENSG00000180357|msi1|total|mutant (ssRNA)
RNA: GGGAGUUCUACAGUCCGACGAUCAACCAACAGCCCUGCAUACUCUGACAUCUCUGAUGCUGGGGAGGAUGGGGAGGGCAAGGCCGACAGUGUCAAAUCAAAGGACGCCGAACAGUUGGUUAAAGAAGGGGCUAAGAAAACUCUCAACAGAGGAUUGAGCAUCA

The other results are listed elsewhere or left out.

This assay addresses T1, UNK ZnF1-6 (called full-length). Nature of the assay: nsRBNS (natural sequence RNA bind-n-seq); RBNS binding buffer (assumed for nsRBNS): 25 mM Tris pH 7.5, 150 mM KCl, 3 mM MgCl2, 0.01% Triton X-100, 500 ug/ml BSA, 20 U/ml SUPERase-In, 4 C; UNK is unkempt and MSI1 is Musashi-1; names of the RNAs are library labels; protein concentration not given here; high values mean tight binding.
Molecule B1 displayed a binding signal of 0.424 enrichment R. In the case of B2 it was 0.511 enrichment R. The figure for B3 is 1.21 enrichment R; for B4 it is 0.263 enrichment R; for B5 it is 1.11 enrichment R. In the case of B6 it was 0.542 enrichment R; in that of B7, 0.525 enrichment R. Consider B8, for which the binding signal is 0.465 enrichment R. In the case of B9 it was 0.38 enrichment R; in that of B10, 0.545 enrichment R. On to B11, for which the binding signal was 0.753 enrichment R.

The molecule B12 had a binding signal of 0.599 enrichment R. The figure for B13 is 0.537 enrichment R.

B14 registered a binding signal of 0.346 enrichment R. For the molecule B15, the binding signal worked out at 0.948 enrichment R. The figure for B16 is 0.43 enrichment R; for B17 it is 0.737 enrichment R. As for B18, the binding signal came out at 0.444 enrichment R.

On to B19, for which the binding signal is 1.75 enrichment R. The molecule B20 yielded a binding signal of 0.87 enrichment R. B21 came in with a binding signal of 0.68 enrichment R. Turning to B22, the binding signal is 0.717 enrichment R.
